Where a name gives a salt, the structure may show the parent alone. Some entries share one result that the patent states for a list of compounds. The name of at least one read-out is uncertain.
Target: T1, Androgen Receptor (Homo sapiens, UniProt P10275, T878A)
T1 construct: the AR gene was modified, using CRISPR/Cas9 editing, so the expressed AR protein included an 11 amino acid HiBiT tag; endogenous in cells; host or cells: clonal LnCaP-derived line, AR gene edited by CRISPR/Cas9
Test: Androgen Receptor Degradation Assay (Nano-Glo HiBiT)
Assay type: cell-based
Details: HiBiT-tagged AR in human LnCaP cells, 18 h
Experimental: Degradation of Androgen Receptor protein in human LnCaP cells treated with PROTACs was quantified using the Nano-Glo® HiBiT Lytic Detection System (Promega) in 384 well assay plate format. A clonal LnCaP derived cell line was first established in which the AR gene was modified, using CRISPR/Cas9 editing, so the expressed AR protein included an 11 amino acid HiBiT tag at its amino-terminus. 10 mM DMSO stock solutions of PROTACs were prepared and diluted across an 11 concentration, 3 fold increment range, and 25 nL dispensed into a white opaque bottomed 384 well assay plate (Thermofisher) using an acoustic ECHO dispenser (Labcyte). […] For the assay, cells were detached from flask and resuspended with assay medium (FluoroBrite™ DMEM supplemented with 10% heat inactivated FBS, penicillin 50 U/mL and streptomycin 50 ug/mL (Thermofisher)). The cell suspension was centrifuged at 400 g for 5 min and the pellet resuspended in assay medium. 25 μL of cell suspension containing 10,000 cells was dispensed into each well of the assay plate containing the test compounds, which was then incubated for 18 h at 37° C./5% CO2. Control wells were included on each assay plate, with assay medium without cells being the no AR remaining 100% effect control, and cells treated with DMSO vehicle only, without PROTAC, the 0% effect control. 25 μL of Nano-Glo® HiBiT lysis buffer supplemented with LgBiT protein and Nano-Glo® substrate (Promega) was added to each well and the plate shaken at 500 rpm for 10 min at room temperature. The intensity of luminescence was measured using a PHERAstar microplate reader (BMG Labtech) and the % AR protein remaining in each well calculated by normalising the raw luminescence value to the above control wells. Parameters corresponding to the potency and efficacy estimates of the PROTACs were obtained from these normalised luminescence values using software (IDBS ActivityBase). These included the DC50 and the Dmax estimates. Two versions of the DC50, called relative DC50 and absolute DC50, were typically generated. These are the inflection point of a fitted 4 parameter sigmoidal response curve and the interpolated concentration of PROTAC corresponding to 50% of the protein being degraded, respectively. The Dmax parameter was the maximum experimentally observed degradation and the asymptote max parameter the fitted response curve asymptote maximum.

T1 sequence (P10275 whole entry T878A): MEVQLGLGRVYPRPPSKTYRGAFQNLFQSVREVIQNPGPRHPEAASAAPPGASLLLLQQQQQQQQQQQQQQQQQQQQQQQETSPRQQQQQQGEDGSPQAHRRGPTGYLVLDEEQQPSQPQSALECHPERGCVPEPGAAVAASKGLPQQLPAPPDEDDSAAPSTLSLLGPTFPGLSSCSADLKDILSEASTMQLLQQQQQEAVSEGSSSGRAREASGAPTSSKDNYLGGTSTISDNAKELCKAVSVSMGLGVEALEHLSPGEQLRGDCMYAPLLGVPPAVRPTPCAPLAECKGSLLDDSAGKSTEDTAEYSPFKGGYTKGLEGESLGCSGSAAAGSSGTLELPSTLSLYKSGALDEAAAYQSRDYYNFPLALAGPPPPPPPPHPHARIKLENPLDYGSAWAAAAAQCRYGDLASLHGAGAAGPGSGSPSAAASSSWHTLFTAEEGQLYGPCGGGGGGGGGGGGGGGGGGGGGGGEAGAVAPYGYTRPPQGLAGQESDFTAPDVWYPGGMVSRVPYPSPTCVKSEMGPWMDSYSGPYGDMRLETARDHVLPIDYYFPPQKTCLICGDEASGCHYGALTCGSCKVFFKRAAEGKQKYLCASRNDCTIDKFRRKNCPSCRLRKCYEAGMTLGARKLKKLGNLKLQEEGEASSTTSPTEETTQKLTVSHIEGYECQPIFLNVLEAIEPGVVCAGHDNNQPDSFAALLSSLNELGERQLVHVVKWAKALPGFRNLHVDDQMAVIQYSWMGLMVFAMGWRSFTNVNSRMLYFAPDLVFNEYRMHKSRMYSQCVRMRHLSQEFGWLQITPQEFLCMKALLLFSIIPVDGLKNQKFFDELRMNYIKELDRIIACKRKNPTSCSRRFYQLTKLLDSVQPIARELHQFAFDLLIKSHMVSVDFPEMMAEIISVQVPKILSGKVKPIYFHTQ
T1 sequence (Q96SW2 whole entry partner): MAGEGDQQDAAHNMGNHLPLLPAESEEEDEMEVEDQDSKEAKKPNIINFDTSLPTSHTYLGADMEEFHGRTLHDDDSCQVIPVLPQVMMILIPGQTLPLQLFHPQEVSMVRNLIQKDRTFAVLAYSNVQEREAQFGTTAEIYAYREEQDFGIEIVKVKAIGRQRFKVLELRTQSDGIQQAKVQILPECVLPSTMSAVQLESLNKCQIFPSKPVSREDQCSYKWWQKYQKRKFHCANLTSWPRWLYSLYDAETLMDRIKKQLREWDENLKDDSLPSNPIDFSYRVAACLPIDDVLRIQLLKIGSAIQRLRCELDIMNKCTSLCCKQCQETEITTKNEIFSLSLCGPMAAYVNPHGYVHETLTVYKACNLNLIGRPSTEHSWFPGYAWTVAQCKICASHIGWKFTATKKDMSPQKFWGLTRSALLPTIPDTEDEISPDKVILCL
T1 sequence (Q16531 whole entry partner): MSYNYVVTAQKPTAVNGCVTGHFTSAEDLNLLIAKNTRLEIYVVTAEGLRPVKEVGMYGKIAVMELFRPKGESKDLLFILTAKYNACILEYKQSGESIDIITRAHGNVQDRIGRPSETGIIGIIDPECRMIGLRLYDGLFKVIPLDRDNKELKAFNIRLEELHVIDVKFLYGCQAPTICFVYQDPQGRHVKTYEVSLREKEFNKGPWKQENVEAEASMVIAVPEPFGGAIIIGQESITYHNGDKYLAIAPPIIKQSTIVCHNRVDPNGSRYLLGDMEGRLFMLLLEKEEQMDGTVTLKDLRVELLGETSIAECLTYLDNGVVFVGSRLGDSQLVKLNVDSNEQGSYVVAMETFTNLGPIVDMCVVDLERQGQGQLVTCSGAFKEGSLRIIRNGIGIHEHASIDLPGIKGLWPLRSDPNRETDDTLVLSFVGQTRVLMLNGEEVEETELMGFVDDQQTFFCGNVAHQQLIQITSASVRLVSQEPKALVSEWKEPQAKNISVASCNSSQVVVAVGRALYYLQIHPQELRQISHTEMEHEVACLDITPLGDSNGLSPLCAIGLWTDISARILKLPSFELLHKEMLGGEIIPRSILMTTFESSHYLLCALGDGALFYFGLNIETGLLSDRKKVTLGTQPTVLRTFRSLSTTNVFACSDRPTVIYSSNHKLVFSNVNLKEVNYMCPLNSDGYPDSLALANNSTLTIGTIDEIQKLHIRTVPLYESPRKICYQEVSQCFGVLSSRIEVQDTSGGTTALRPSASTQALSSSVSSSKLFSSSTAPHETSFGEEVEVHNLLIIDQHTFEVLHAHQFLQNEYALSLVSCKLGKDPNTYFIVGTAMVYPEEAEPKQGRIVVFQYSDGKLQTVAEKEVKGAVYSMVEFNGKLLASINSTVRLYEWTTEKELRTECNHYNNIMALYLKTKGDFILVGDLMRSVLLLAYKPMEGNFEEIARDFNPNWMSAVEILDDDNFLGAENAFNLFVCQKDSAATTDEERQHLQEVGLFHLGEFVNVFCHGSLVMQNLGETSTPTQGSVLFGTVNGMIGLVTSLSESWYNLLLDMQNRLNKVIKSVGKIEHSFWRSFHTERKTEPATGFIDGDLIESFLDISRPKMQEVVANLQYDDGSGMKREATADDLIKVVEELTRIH

Cl.N#Cc1ccc(O[C@H]2CC[C@H](NC(=O)c3ccc(N4CCC(CN5CCC6(CC5)CC(n5ccc7c(N8CCC(=O)NC8=O)cccc75)C6)CC4)nn3)CC2)cc1Cl [EAR185, N-((1r,4r)-4-(3-Chloro-4-cyanophenoxy)cyclohexyl)-6-(4-((2-(4-(2,4-dioxotetrahydropyrimidin-1(2H)-yl)-1H-indol-1-yl)-7-azaspiro[3.5]nonan-7-yl)methyl)piperidin-1-yl)pyridazine-3-carboxamide hydrochloride]
mean relative pDC50 (hydrochloride): ≥ 8.0

N#Cc1ccc(O[C@H]2CC[C@H](NC(=O)c3cnc(N4CCC(CN5CCC(n6ccc7c(N8CCC(=O)NC8=O)ncnc76)CC5)CC4)cn3)CC2)cc1Cl [EAR196, N-((1r,4r)-4-(3-Chloro-4-cyanophenoxy)cyclohexyl)-5-(4-((4-(4-(2,4-dioxotetrahydropyrimidin-1(2H)-yl)-7H-pyrrolo[2,3-d]pyrimidin-7-yl)piperidin-1-yl)methyl)piperidin-1-yl)pyrazine-2-carboxamide hydrochloride]
mean asymptote max (hydrochloride): > 70%
mean relative pDC50 (hydrochloride): ≥ 8.0

Cl.N#Cc1ccc(O[C@H]2CC[C@H](NC(=O)c3cnc(N4CCC(CN5CCC(n6ccc7c(N8CCC(=O)NC8=O)nccc76)CC5)CC4)nc3)CC2)cc1Cl [EAR211, N-((1r,4r)-4-(3-chloro-4-cyanophenoxy)cyclohexyl)-2-(4-((4-(4-(2,4-dioxotetrahydropyrimidin-1(2H)-yl)-1H-pyrrolo[3,2-c]pyridin-1-yl)piperidin-1-yl)methyl)piperidin-1-yl)pyrimidine-5-carboxamide hydrochloride]
mean relative pDC50 (hydrochloride): ≥ 8.0

CC1(C)CCN(c2ccc(C(=O)N[C@H]3CC[C@H](Oc4ccc(C#N)c(Cl)c4)CC3)nn2)CC1CN1CCC(n2ncc3c(N4CCC(=O)NC4=O)cccc32)CC1 (some centres unmarked) [EAR222, N-((1r,4r)-4-(3-chloro-4-cyanophenoxy)cyclohexyl)-6-(3-((4-(4-(2,4-dioxotetrahydropyrimidin-1(2H)-yl)-1H-indazol-1-yl)piperidin-1-yl)methyl)-4,4-dimethylpiperidin-1-yl)pyridazine-3-carboxamide]
mean relative pDC50: ≥ 6.0

CC1(CN2CCC(n3ncc4c(N5CCC(=O)NC5=O)cccc43)CC2)CN(c2ccc(C(=O)N[C@H]3CC[C@H](Oc4ccc(C#N)c(Cl)c4)CC3)nn2)C1 [EAR240, N-((1r,4r)-4-(3-chloro-4-cyanophenoxy)cyclohexyl)-6-(3-((4-(4-(2,4-dioxotetrahydropyrimidin-1(2H)-yl)-1H-indazol-1-yl)piperidin-1-yl)methyl)-3-methylazetidin-1-yl)pyridazine-3-carboxamide]
mean asymptote max: > 70%

CC1(CN2CCC(n3ncc4c(N5CCC(=O)NC5=O)cccc43)CC2)CCN(c2ccc(C(=O)N[C@H]3CC[C@H](Oc4ccc(C#N)c(Cl)c4)CC3)nn2)CC1 [EAR242, N-((1r,4r)-4-(3-chloro-4-cyanophenoxy)cyclohexyl)-6-(4-((4-(4-(2,4-dioxotetrahydropyrimidin-1(2H)-yl)-1H-indazol-1-yl)piperidin-1-yl)methyl)-4-methylpiperidin-1-yl)pyridazine-3-carboxamide]
mean asymptote max: > 70%

N#Cc1ccc(O[C@H]2CC[C@H](NC(=O)c3ccc(N4C[C@]5(CN6CCC(n7ncc8c(N9CCC(=O)NC9=O)cccc87)CC6)C[C@]5(C(F)(F)F)C4)nn3)CC2)cc1Cl [EAR244, N-((1r,4R)-4-(3-chloro-4-cyanophenoxy)cyclohexyl)-6-((1R,5R)-1-((4-(4-(2,4-dioxotetrahydropyrimidin-1(2H)-yl)-1H-indazol-1-yl)piperidin-1-yl)methyl)-5-(trifluoromethyl)-3-azabicyclo[3.1.0]hexan-3-yl)pyridazine-3-carboxamide]
mean relative pDC50: ≥ 6.0
